Results published in PubChem BioAssay AID1461 (National Center for Advancing Translational Sciences (NCATS), 2008).
Hit rate of the full screen: of about 220,000 compounds, about 2,300 (1%) were called active. Inconclusive results, whose numbers are uncertain, are shown with a selection of clear calls. Calls come from the whole dose curve; as a rule, active = well fitted inhibition curve with a large enough effect; inconclusive = small, poorly fitted or top-dose-only effect, or effect the other way; inactive = no such curve, though single readings can be large or run the other way. Potencies of inconclusive entries are left out as doubtful fits.

target: Neuropeptide S receptor (Homo sapiens) (UniProt Q6W5P4); experiment: qHTS Assay for Antagonists of the Neuropeptide S Receptor: cAMP Signal Transduction; conditions: CHO-NPSR cells, cAMP TR-FRET, antagonist mode; series mostly up to 38.3 µM; note: nearly all actives have a fitted effect of over 50% in size
Potency is the fitted concentration of half-maximal effect; tags give direction and shape of the fitted curve.

UniProt Q6W5P4, sequence (Q6W5P4 whole entry, looked up): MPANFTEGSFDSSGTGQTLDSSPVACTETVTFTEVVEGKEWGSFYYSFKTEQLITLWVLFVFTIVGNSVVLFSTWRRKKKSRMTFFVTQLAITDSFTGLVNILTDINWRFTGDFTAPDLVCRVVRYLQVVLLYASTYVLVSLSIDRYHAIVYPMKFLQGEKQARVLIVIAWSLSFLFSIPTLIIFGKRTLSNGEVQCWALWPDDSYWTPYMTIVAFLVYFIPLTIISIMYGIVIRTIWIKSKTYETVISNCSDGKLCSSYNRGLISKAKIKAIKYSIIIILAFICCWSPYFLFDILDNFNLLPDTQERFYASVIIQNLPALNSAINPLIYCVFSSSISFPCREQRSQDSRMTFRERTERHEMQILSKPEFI

| Structure (SMILES) | Potency |
| --- | --- |
| CCC(c1nnc(SCC(=O)Nc2cccc(S(N)(=O)=O)c2)n1Cc1ccccc1)N(C)C (stereo not drawn) | inactive |
| CC1CC(C)CN(c2ncc3c(n2)CC(c2ccccc2)CC3=O)C1 (stereo not drawn) | inconclusive [inhibitor, partial curve, poor fit] |
| Clc1nnc(N/N=C/c2ccccc2)c2ccccc12 | inactive |
| O=C(O)Cc1c[nH]c2ccc(O)cc12 | inconclusive [inhibitor, single point] |
| COc1ccc(C)c2sc(=NC(=O)c3ccc(C(C)=O)cc3)n(C)c12 | inactive |
| COc1ccc(CNCC(O)(c2ccc(Cl)cc2)c2ccc(Cl)cc2)cc1OC | inconclusive [inhibitor, single point] |
| c1csc(-c2nnc(N3CCCCCC3)c3ccccc23)c1 | inconclusive [inhibitor, single point] |
| O=c1cc(-c2ccccc2Cl)oc2c(NS(=O)(=O)c3ccccc3C(F)(F)F)ccc(O)c12 | inconclusive [inhibitor, single point] |
| Cc1ccc(Cl)cc1Nc1nc(-c2sc(NC(=O)c3cccc(Cl)c3)nc2C)cs1 | inactive |
| CC(C)Cn1c(-c2csc3c2CCCC3)n[nH]c1=S | inactive |
| C=Cn1nc(C)c2ccccc2c1=O | inconclusive [inhibitor, single point] |
| O=C(NC1CC1)c1nc2c(nnn2Cc2ccccc2Cl)c(=O)[nH]1 | inconclusive [inhibitor, single point] |
| CCOC(=O)c1ccc(N2C(=O)CC(N(C)CCc3ccc(OC)c(OC)c3)C2=O)cc1 (stereo not drawn) | inactive |
| COc1ccc(OC)c(/C=C2\SC(=S)N(C(C(=O)O)c3ccccc3)C2=O)c1 (stereo not drawn) | inactive |
| O=C(Nc1ccc(NC(=O)c2cccs2)cc1)c1ccco1 | inactive |
| O=c1c(-c2ccc3c(c2)OCCO3)coc2cc(O)cc(O)c12 | inconclusive [inhibitor, single point] |
| C/C(N)=C(/C#N)C(=O)CSc1nc(C2CCCCC2)n(-c2ccccc2)n1 | inconclusive [inhibitor, single point] |
| O=C(CCCC(=O)N1CCN(c2ccc([N+](=O)[O-])cc2)CC1)c1ccccc1 | inactive |
| COc1ccc(CC2C(=O)OC(C)(C)OC2=O)cc1 | inconclusive [inhibitor, single point] |
| Cc1c(C#N)c2ccccc2n1CC(=O)NCC1CCCO1 (stereo not drawn) | inactive |
| O=C(O)/C=C\C(=O)Nc1cc(O)ccc1[N+](=O)[O-] | inconclusive [inhibitor, single point] |
| Cc1sc2ncnc(SC(C)C(=O)N3c4ccccc4Sc4ccccc43)c2c1C (stereo not drawn) | inactive |
| CCOc1cc(/C=N/NC(N)=O)ccc1OCC(=O)Nc1ccc(C)c(C)c1 | inactive |
| COc1ccc(C2C(C(=O)Nc3ccccc3OC)=C(C)Nc3nnnn32)c(OC)c1 (stereo not drawn) | inconclusive [inhibitor, partial curve] |
| O=C(CSc1cccc[n+]1[O-])c1cc2ccccc2o1 | active: 7.94 µM |

| Structure (SMILES) | Potency |
| --- | --- |
| Cc1ccccc1NS(=O)(=O)c1cccc(-c2nnc(-c3ccccc3)o2)c1 | inconclusive [inhibitor, single point] |
| CCCCNC(=O)CNC(=S)N(Cc1cc(OC)c(OC)c(OC)c1)C1CCCC1 | inactive |
| CCOC(=O)C1C(=O)C=C(c2ccc(Br)cc2)CC1c1ccco1 (stereo not drawn) | inactive |
| Cn1c(C(=O)N2CCCC(C(=O)NCCCSC3CCCCC3)C2)cc2sccc21 (stereo not drawn) | inconclusive [inhibitor, partial curve, poor fit] |
| O=S(=O)(c1ccccc1)N1N=C(c2cccs2)CC1c1ccc(Br)cc1 (stereo not drawn) | inconclusive [inhibitor, partial curve] |
| CCN1C(=O)C(CC(=O)Nc2ccc(OC)cc2)N(CCc2ccccc2)C1=S (stereo not drawn) | inactive |
| CCOC(=O)c1ccc(N/C=C2/CCCC(C)C2=O)cc1 (stereo not drawn) | inactive |
| Cc1cccc(Nc2c3c(nc4ccccc24)CCC3)c1 | inconclusive [activator, partial curve] |
| COc1ccc(C2NC(=S)N(c3ccccc3)C(C)=C2C(=O)Nc2ccccc2)cc1 (stereo not drawn) | inconclusive [inhibitor, single point] |
| Cc1cnnn1-c1ccc(C(=O)CCl)cc1 | inactive |
| N#C/C(C(N)=O)=C1/SC=C(c2ccccc2)N1c1ccccc1 | inconclusive [inhibitor, single point] |
| OCC#Cc1ncc(C(F)(F)F)cc1Cl | inactive |
| CCC(CC)C(=O)Nc1cccc(C(=O)NCCc2ccccc2)c1 | inactive |
| Cc1nc2c(C(=O)NCc3ccc4c(c3)OCO4)cnn2c(C)c1Cc1ccc(F)cc1Cl | active: 10 µM |
| c1cc2c(cc1C1CCCCC1)c1c3n2CCN=C3CCC1 | inconclusive [inhibitor, single point] |
| Cc1onc(-c2c(Cl)cccc2Cl)c1-c1nc2cc(Cl)ccc2c(=O)o1 | inconclusive [activator, single point] |
| Cc1ccc(S(=O)(=O)NC(C)(C)CSc2nnc(Nc3ccccc3)s2)cc1 | inconclusive [inhibitor, single point] |
| CCC(=O)N1CCN(c2ccc(Cl)cc2NC(=O)Cc2ccc(Cl)cc2)CC1 | inconclusive [inhibitor, single point] |
| COc1ccccc1NS(=O)(=O)c1cc(NC(=O)C2CCCC2)ccc1N1CCOCC1 | inactive |
| COc1cc(C(=O)OCc2cc3ccccc3[nH]c2=O)cc(OC)c1OC | inconclusive [activator, single point] |
| COc1ccccc1-c1c(C)nn2c(N3CCN(c4ccccc4OC)CC3)cc(C)nc12 | inconclusive [inhibitor, partial curve, poor fit] |
| c1ccc(CCNc2nc3ccccc3n3nnnc23)cc1 | inconclusive [inhibitor, single point] |
| COCCn1nnnc1C(c1cccs1)N1CCN(c2cc(C)ccc2C)CC1 (stereo not drawn) | inconclusive [inhibitor, partial curve] |
| CCCN1C(=O)/C(=C/c2c(N3CCNC(=O)C3CC(=O)OC)nc3c(C)cccn3c2=O)SC1=S (stereo not drawn) | inconclusive [activator, partial curve, poor fit] |
| CCn1c(SCC(=O)N2CCN(c3cccc(Cl)c3)CC2)nc2ccccc2c1=O | inconclusive [inhibitor, single point] |

| Structure (SMILES) | Potency |
| --- | --- |
| COc1cc(C(=S)N2CCOCC2)cc(OC)c1OC | inactive |
| CC(C)CC(=O)NC(NC(=S)Nc1cccc2cccnc12)C(Cl)(Cl)Cl (stereo not drawn) | inconclusive [inhibitor, single point] |
| CCNC(=O)CCSc1nc2cc(Cl)ccc2o1 | inactive |
| CCSCCOC(=O)C1=C(C)NC(=O)NC1c1ccc2c(c1)OCO2 (stereo not drawn) | inactive |
| COc1ccccc1NC(=O)N(Cc1ccco1)Cc1cc2ccc(C)c(C)c2[nH]c1=O | inconclusive [inhibitor, partial curve] |
| CC1=NN(c2ccc(Cl)cc2)C(=O)C1C(c1ccccc1O)c1c(C)[nH]n(-c2ccc(Cl)cc2)c1=O (stereo not drawn) | inactive |
| CCOc1ccccc1N=c1oc2cc(O)ccc2cc1C(=O)NCC1CCCO1 (stereo not drawn) | inconclusive [inhibitor, single point] |
| O=C1CC(c2ccc(F)cc2)CC2=C1C(c1ccc([N+](=O)[O-])o1)Nc1ccccc1N2 (stereo not drawn) | inconclusive [activator, single point] |
| Cc1ccc(C)n1-n1cnc2scc(-c3cccs3)c2c1=O | inactive |
| Cc1ccsc1-c1nc(CSCC(=O)N2CCN(c3ccccc3)CC2)c(C)o1 | inconclusive [inhibitor, single point] |
| O=C(CCN1CCCCC1)c1ccc2c(c1)OCCO2 | inactive |
| Cc1ccccc1-n1ncc2c(SCC(=O)N3c4ccccc4CC3C)ncnc21 (stereo not drawn) | inconclusive [inhibitor, partial curve] |
| O=C(NCc1ccccc1Cl)C1CCCN(c2nc3ccsc3c(=O)s2)C1 (stereo not drawn) | inconclusive [inhibitor, single point] |
| COC(=O)c1ccc(-n2c(C)ccc2-c2ccccc2)cc1 | inconclusive [inhibitor, single point] |
| CCN1C(c2ccc(F)cc2)=CS/C1=C(\C#N)c1nnc2n1-c1ccccc1SC2 | inconclusive [inhibitor, single point] |
| CCN(CCCn1c(=S)[nH]c2ccc(N3CCOCC3)cc2c1=O)c1ccccc1 | inactive |
| c1ccc(-n2c(SCc3nc(-c4cccs4)no3)nnc2-c2ccco2)cc1 | inconclusive [inhibitor, single point] |
| CCC(/C=C1\Sc2ccc(OC)cc2N1CCO)=C\c1sc2ccc(OC)cc2[n+]1CCO | active: 10 µM |
| CC(C)(C)n1nnnc1C(c1cccc(C#N)c1)N1CCC(Cc2ccccc2)CC1 (stereo not drawn) | inconclusive [inhibitor, single point] |
| O=c1/c(=C\c2cccc(O)c2)sc2nc(-c3ccccc3)c(-c3ccccc3)n12 | inconclusive [inhibitor, single point] |
| CCOc1ccc2[nH]c3c(N4CCN(c5ccccn5)CC4)ncnc3c2c1 | inconclusive [inhibitor, single point] |
| O=C(CSc1n[nH]c(-c2cccs2)n1)N1CCN(S(=O)(=O)c2ccc3ccccc3c2)CC1 | inconclusive [inhibitor, partial curve] |
| Cc1nonc1NC(=O)CSc1nnc(-c2ccoc2C)n1CC(C)C | inconclusive [inhibitor, single point] |
